Results on 1 molecule are retold here after patent US6693079.

The target of assay [1] is T1, recombinant human IGFBP-1 (human, UniProt P08833 26-259).
T1 construct: Plate-coated, biotinylated or coupled to a dextran chip, depending on the assay; also called rhIGFBP-1; biotinylated IGFBP-1
T1 sequence (looked up): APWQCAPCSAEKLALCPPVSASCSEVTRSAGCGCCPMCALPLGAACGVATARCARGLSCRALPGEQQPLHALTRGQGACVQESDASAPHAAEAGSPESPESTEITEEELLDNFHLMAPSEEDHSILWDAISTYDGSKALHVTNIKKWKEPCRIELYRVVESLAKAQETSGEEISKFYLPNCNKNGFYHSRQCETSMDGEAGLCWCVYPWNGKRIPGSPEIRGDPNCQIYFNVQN
The experiment in a line: competitive displacement of 125I-IGF-I from plate-coated rhIGFBP-1. For orientation: In a radioligand displacement assay an active substance lowers the binding of a labelled ligand.

For assay [2], the target named is T2, recombinant human IGFBP-3 (human, UniProt P17936).
T2 construct: also called rhIGFBP-3; biotinylated IGFBP-3
Nature of the assay: competitive displacement of 125I-IGF-I from plate-coated rhIGFBP-3.

T2 sequence (P17936 28-291 limits assumed): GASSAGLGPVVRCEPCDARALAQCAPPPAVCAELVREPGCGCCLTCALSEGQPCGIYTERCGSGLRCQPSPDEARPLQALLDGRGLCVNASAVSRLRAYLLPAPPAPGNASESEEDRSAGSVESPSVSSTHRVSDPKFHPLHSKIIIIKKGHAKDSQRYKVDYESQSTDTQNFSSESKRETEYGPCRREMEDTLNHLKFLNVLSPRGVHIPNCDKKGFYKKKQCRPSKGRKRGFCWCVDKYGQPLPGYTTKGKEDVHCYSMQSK

B1: (Leu^24,Ala^31)hIGF-I (ligand)
chain: not shown
notes: mature; also called IGF-M; IGF mutant
Regarding B1, the binding result in assay [1] and in assay [2] was “binds” throughout.
